# Data: the supplement of paper PMC12645437, “Orthogonal IMiD-Degron Pairs Induce Selective Protein Degradation in Cells” (ACS Chemical Biology, 2025)
# Some of the results follow.
# B1: Q9UKT9 (peptide)
# chain: LCCEICGFNCTQKGNLLRHIKL
# B2: Q9UKT9 (peptide)
# chain: FKCNQCGHQFTQKGNLLRHIKL
# B3: Q9UKT9 (peptide)
# chain: FLCPICGRAFTQKGNLLRHIKL
# B4: Q9UKT9 (peptide)
# chain: FQCDVCGAWFTQKGNLLRHIKL
# B5: Q9UKT9 (peptide)
# chain: FVCDICGAMFTQKGNLLRHIKL
# B6: Q9UKT9 (peptide)
# chain: FGCNQCGHEFTQKGNLLRHIKL
# B7: Q9UKT9 (peptide)
# chain: FNCPICGHLFTQKGNLLRHIKL
# B8: Q9UKT9 (peptide)
# chain: LHCPICGFNCTQKGNLLRHIKL
# B9: Q9UKT9 (peptide)
# chain: FSCPQCGAFFTQKGNLLRHIKL
# B10: Q9UKT9 (peptide)
# chain: FSCEICGRDFTQKGNLLRHIKL
# B11: Q9UKT9 (peptide)
# chain: FMCDVCGAHFTQKGNLLRHIKL
# B12: Q9UKT9 (peptide)
# chain: FACDVCGALFTQKGNLLRHIKL
# B13: Q9UKT9 (peptide)
# chain: FLCNQCGAIFTQKGNLLRHIKL
# B14: Q9UKT9 (peptide)
# chain: LSCNQCGFLCTQKGNLLRHIKL
# B15: Q9UKT9 (peptide)
# chain: FCCSVCGHTFTQKGNLLRHIKL
# B16: Q9UKT9 (peptide)
# chain: FGCPQCGASFTQKGNLLRHIKL
# B17: Q9UKT9 (peptide)
# chain: FKCDQCGAMFTQKGNLLRHIKL
# B18: Q9UKT9 (peptide)
# chain: FGCEVCGATFTQKGNLLRHIKL
# B19: Q9UKT9 (peptide)
# chain: FFCNQCGAKFTQKGNLLRHIKL
# B20: Q9UKT9 (peptide)
# chain: FICEICGAAFTQKGNLLRHIKL
# B21: Q9UKT9 (peptide)
# chain: FGCDQCGAGFTQKGNLLRHIKL
# B22: Q9UKT9 (peptide)
# chain: FLCPQCGAIFTQKGNLLRHIKL
# B23: Q9UKT9 (peptide)
# chain: FLCEICGARFTQKGNLLRHIKL
# B24: Q9UKT9 (peptide)
# chain: FTCEICGAYFTQKGNLLRHIKL
# B25: Q9UKT9 (peptide)
# chain: FNCDVCGALFTQKGNLLRHIKL
# B26: Q9UKT9 (peptide)
# chain: LECPICGFKCTQKGNLLRHIKL
# B27: Q9UKT9 (peptide)
# chain: FACPICGRFFTQKGNLLRHIKL
# B28: Q9UKT9 (peptide)
# chain: FCCPQCGAQFTQKGNLLRHIKL
# B29: Q9UKT9 (peptide)
# chain: FMCDQCGAMFTQKGNLLRHIKL
# B30: Q9UKT9 (peptide)
# chain: LECEICGFSCTQKGNLLRHIKL
# B31: Q9UKT9 (peptide)
# chain: FRCNICGAQFTQKGNLLRHIKL
# B32: Q9UKT9 (peptide)
# chain: FGCSVCGHMFTQKGNLLRHIKL
# Target: no compound (DMSO)
# Experiment: log2 fold change of degron read counts, EGFP-low vs EGFP+ sorted cells; higher = lower degron-EGFP level without compound (poor expression or instability)
# Details: compound: DMSO control; 18 h
# 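Further: jurkat cells carrying a lentiviral library of mutant zinc finger degrons fused to EGFP plus mCherry, mCherry+ cells FACS sorted, degron abundance counted by next-generation sequencing.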
row,Sequence,log2 fold change of degron read counts
1,B1,-0.152
2,B2,-0.961
3,B3,0.124
4,B4,-0.696
5,B5,-2.25
6,B6,-0.359
7,B7,-0.0516
8,B8,0.599
9,B9,0.0617
10,B10,-1.63
11,B11,-2.21
12,B12,-1.4
13,B13,0.552
14,B14,1.07
15,B15,-0.742
16,B16,-1.12

row,Sequence,log2 fold change of degron read counts
1,B17,-1.65
2,B18,-2.6
3,B19,-0.172
4,B20,-2.36
5,B21,-1.35
6,B22,0.774
7,B23,-0.869
8,B24,-0.909
9,B25,-1.27
10,B26,0.629
11,B27,-0.363
12,B28,-1.72
13,B29,-0.648
14,B30,-0.562
15,B31,-0.571
16,B32,0.358
